Source: PubChem BioAssay AID1345082 (National Center for Advancing Translational Sciences (NCATS), 2018)
The whole screen tested about 94,000 compounds, of which about 4,000 (4.3%) were called active. Inconclusive means that the source gave no clear call. Such entries were picked first, then a sample of the others. The call rests on the fitted dose curve; in most records, active means well fitted inhibition curve with a large enough effect; inconclusive means small, poorly fitted or top-dose-only effect; inactive means no such curve, though single readings can be large or run the other way. Where the call is inconclusive, the potency comes from a doubtful curve fit.

experiment: Cytotoxic Profiling in NIH 3T3 Cell Line of Diverse Libraries Using Quantitative High-Throughput Screening; conditions: NIH 3T3 viability, CellTiter-Glo ATP luminescence, 48-72 h; activity change, negative = cytotoxicity: at 96.7 µM (top of the series) unless noted; series mostly up to 96.7 µM; further: nearly all actives have a fitted effect of over 55% in size
In short: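 First NIH 3T3 cells are plated at 400 cells/well; next compound is pinned in; then plates incubate 48 or 72 hr at 37 °C; finally CellTiter-Glo is added and luminescence read after 10 min.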
On the % scale 0 is the no-effect control and ±100 the full control effect; potency means the concentration at half of the fitted maximal effect; tags describe the fitted curve by direction and shape.

Compound | outcome | Potency | activity change, negative = cytotoxicity
O=C(c1ccnc2[nH]ccc12)N1CCOCC1 | inactive [at 174 µM] | – | –
COc1cc(OC)cc(C(=O)N2CCC3(C2)NC(=O)N(Cc2ccc(Cl)cc2)C3=O)c1 (stereo not given) | – | inconclusive: 39.8 µM [inhibitor, partial curve, poor fit] | –
COc1cccc(CN2CCCC3(CCN(Cc4ccccc4)C3)C2=O)c1OC (stereo not given) | – | inconclusive: 39.8 µM [inhibitor, partial curve] | –
Nc1nc(C2CC(O)C2)cc(N2CCc3sccc3C2)n1 (stereo not given) | – | inconclusive: 44.7 µM [inhibitor, partial curve, poor fit] | –
O=c1c2c3c(nn2ccn1Cc1ccc(Cl)cc1)CCCC3 | – | inconclusive: 44.7 µM [inhibitor, partial curve, poor fit] | –
CN(C(=O)Cc1ccccn1)C1CCCc2ccccc21 (stereo not given) | – | inconclusive: 89.1 µM [inhibitor, partial curve, poor fit] | –
Cc1noc(C)c1[S+](=O)([O-])N1CCC(C(=O)C2CCC(N3Cc4cccn4C3=O)CC2)CC1 (stereo not given) | – | – | inactive: -13.5%
O=C(NC[C@H]1Cn2c(-c3ccc4c(c3)OCO4)cnc2CO1)Nc1ccc(F)cc1 | – | inconclusive: 50.1 µM [inhibitor, partial curve, poor fit] | –
Cc1cn2nc(C(=O)Nc3ccc(Cl)c(C)c3)cc2c(N2CCSCC2)n1 | – | inconclusive: 39.8 µM [inhibitor, partial curve, poor fit] | –
CC(=O)Nc1ccc(S(=O)(=O)N[C@H]2CO[C@H]3[C@@H]2OC[C@@H]3Nc2nccc(C(C)(C)C)n2)cc1 | – | inconclusive: 35.5 µM [inhibitor, partial curve, poor fit] | –
C=CCNC(=O)c1cc2cccnn2n1 | – | – | inactive: -5.44% [at 174 µM]
O=C(CCc1cccs1)N1CCOC(CCCc2ccccc2)C1 (stereo not given) | – | inconclusive: 28.2 µM [inhibitor, partial curve, poor fit] | –
COCCNC(=O)[C@@H]1C[C@@H](O)CN1C1CCN(C(=O)Cc2ccccc2)CC1 | – | – | inactive: -16.1%
COc1ccc(CCc2nc3nccc(-c4cccnc4)n3n2)cc1 | – | inconclusive: 70.8 µM [inhibitor, single point] | –
CCOC(=O)C1c2c(OC)ccc3c2C(=CC(C)(C)CO3)CN1Cc1nccn1C (stereo not given) | – | inconclusive: 50.1 µM [inhibitor, partial curve, poor fit] | –
Cn1nc(C2CCCN(C(=O)c3ccco3)C2)n(C2CCCC2)c1=O (stereo not given) | – | inconclusive: 70.8 µM [inhibitor, single point] | –
O=C(N[C@H]1CCN2C(=O)c3cc(-c4ccccc4)ccc3NC(=O)[C@H]12)c1cccc(F)c1 | – | inconclusive: 56.2 µM [inhibitor, partial curve, poor fit] | –
Cc1ccc([S+](=O)([O-])N2CCN(C(=O)c3nc4cccnc4n(C4CCCC4)c3=O)CC2)cc1 | – | inconclusive: 44.7 µM [inhibitor, partial curve, poor fit] | –
O=C(c1ccsc1)N1CCCCCC1c1nnc(-c2ccccc2)o1 (stereo not given) | – | – | inactive: -20.9%
Cn1cccc1C(=O)N1CCC2(CC1)CN(Cc1ccccc1)CC2CO (stereo not given) | – | inconclusive: 70.8 µM [inhibitor, single point] | –

Compound | outcome | Potency | activity change, negative = cytotoxicity
O=C1NCCCCCN(Cc2ccc(F)cc2F)[C@H]2CCC[C@@H]12 | – | inconclusive: 70.8 µM [inhibitor, partial curve, poor fit] | –
Cc1ccc(-c2ccccc2CN2CCC(C(=O)NCC3CCCCC3)CC2)cc1Cl | – | – | inactive: -17.6%
COc1ccc(C(=O)N[C@H]2CO[C@H]3[C@@H]2OC[C@@H]3Nc2nccc(C(C)(C)C)n2)cc1 | – | inconclusive: 79.4 µM [inhibitor, partial curve, poor fit] | –
CC(C)NC(=O)CN1CCN(Cc2cc(=O)c3cccc(Cl)c3[nH]2)CC1 | – | – | inactive: -35.2%
CN(C)c1ccc2ncc(Nc3ccccc3Cl)n2n1 | – | active: 31.6 µM | –
O=C(Nc1cccc(Cl)c1)N1CC(n2cc(COc3ccccc3)nn2)C1 | – | inconclusive: 39.8 µM [inhibitor, partial curve, poor fit] | –
O=C(Nc1cccc2ccccc12)O[C@@H]1CO[C@H]2[C@@H]1OC[C@@H]2NS(=O)(=O)Cc1ccccc1 | – | – | inactive: -1.61%
Cc1cccc(C)c1NC(=O)Cn1c(=O)n(-c2ccc(F)cc2)c(=O)c2c1cc(C)n2C | inactive | – | –
Cc1ccc(C(=O)NC[C@@H]2CC[C@H]3C[C@@H]2C3(C)C)cc1 | – | inconclusive: 79.4 µM [inhibitor, partial curve] | –
Cc1ccc2nc(CO[C@H]3CN(Cc4ccc(F)c(F)c4)C[C@H]3F)[nH]c2c1 | – | inconclusive: 89.1 µM [inhibitor, partial curve] | –
O=C(Nc1ccc(F)cc1)c1ccc2cc[nH]c2n1 | – | inconclusive: 12.6 µM [inhibitor, full curve, poor fit] | –
Cc1nn(CCC#N)c(C)c1[C@@H]1C=C[C@@H](NC(=O)NC(C)C)C1 | – | inconclusive: 126 µM [inhibitor, single point] | –
COC1CCN(C(=O)c2ccnc(-c3nnc4ccc(N(C)C)nn34)c2)CC1 | – | active: 44.7 µM | –
O=C(Nc1ccc(F)cc1)c1ccc2nc(-c3ccncc3)oc2c1 | – | – | inactive: -22.3% [at 138 µM]
Cc1nn(-c2ccccc2)c2c1C(C1CC1)N(C1CCN(C(=O)c3ccc(F)cc3)C1)C2=O (stereo not given) | – | inconclusive: 10 µM [inhibitor, full curve, poor fit] | –
Cc1cccc(C(=O)NC2CCN(c3cc(-c4ccc(Cl)cc4)[nH]n3)C2)c1 (stereo not given) | – | inconclusive: 50.1 µM [inhibitor, partial curve, poor fit] | –
CCN1CC(C)(C)CN([S+](=O)([O-])c2ccc(C)cc2)CC1=O | – | inconclusive: 79.4 µM [inhibitor, partial curve, poor fit] | –
COc1ccc(-c2cnc([C@@H]3COCCN3Cc3cccc(C#N)c3)[nH]2)cc1 | – | – | inactive: -18.2% [at 138 µM]
O=C(C1CCCC1)N1CCN(c2nccc(Nc3ccccc3F)n2)CC1 | – | active: 22.4 µM | –
COc1cccc(-c2cc(C(=O)NCc3nc(-c4ccccc4)n[nH]3)[nH]n2)c1 | – | inconclusive: 50.1 µM [inhibitor, partial curve, poor fit] | –
